Test results reported in publication PMC4081100.
Only a part is listed here, and it is no random draw. For part of these data: At the low end of the ranking the order means little. The list shows a part of the results. For part of these data: The source does not settle which construct or isoform was used.

Assays:
Assay in all cases: universal protein binding microarray (PBM)
Settings in all cases: transcription factors of Arabidopsis thaliana; high values mean tight binding; most listed sequences are background and not binding sites; double strand, one strand shown
GST-ANAC092(1-176) = target: T1, GST-ANAC092(1-176) (UniProt Q9FKA0)
T1 sequence: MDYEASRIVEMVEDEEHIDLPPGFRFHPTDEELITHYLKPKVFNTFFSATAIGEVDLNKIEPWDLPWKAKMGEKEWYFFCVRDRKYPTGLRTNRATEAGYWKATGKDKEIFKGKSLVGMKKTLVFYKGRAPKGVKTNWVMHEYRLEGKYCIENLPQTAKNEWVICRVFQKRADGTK

GST-NTL6(1-168) = GST-NTL6(1-168) (UniProt Q9SCK6)
GST-ANAC019 NAC domain = target: T2, GST-ANAC019 NAC domain (UniProt Q9C932)
T2 sequence: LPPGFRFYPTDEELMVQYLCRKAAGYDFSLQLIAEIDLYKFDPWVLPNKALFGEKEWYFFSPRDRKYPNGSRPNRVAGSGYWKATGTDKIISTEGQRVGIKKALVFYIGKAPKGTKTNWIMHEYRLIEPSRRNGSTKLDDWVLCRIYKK

GST-ANAC055(1-171) = target: T3, GST-ANAC055(1-171) (UniProt Q9LDY8)
T3 sequence: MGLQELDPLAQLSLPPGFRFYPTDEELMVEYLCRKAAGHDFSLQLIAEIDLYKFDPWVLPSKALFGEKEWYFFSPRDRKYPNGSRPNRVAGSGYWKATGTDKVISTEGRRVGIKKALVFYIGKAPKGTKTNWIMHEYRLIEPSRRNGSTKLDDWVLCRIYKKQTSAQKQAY

GST-ATAF1 NAC domain = target: T4, GST-ATAF1 NAC domain (UniProt Q39013)
T4 sequence: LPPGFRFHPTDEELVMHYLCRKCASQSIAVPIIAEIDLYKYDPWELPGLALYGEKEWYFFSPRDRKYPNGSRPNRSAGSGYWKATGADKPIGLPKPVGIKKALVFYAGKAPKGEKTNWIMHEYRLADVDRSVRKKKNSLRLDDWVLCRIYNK

[1] = target: T5, GST-ANAC092(1-285) full length (UniProt Q9FKA0)
T5 sequence: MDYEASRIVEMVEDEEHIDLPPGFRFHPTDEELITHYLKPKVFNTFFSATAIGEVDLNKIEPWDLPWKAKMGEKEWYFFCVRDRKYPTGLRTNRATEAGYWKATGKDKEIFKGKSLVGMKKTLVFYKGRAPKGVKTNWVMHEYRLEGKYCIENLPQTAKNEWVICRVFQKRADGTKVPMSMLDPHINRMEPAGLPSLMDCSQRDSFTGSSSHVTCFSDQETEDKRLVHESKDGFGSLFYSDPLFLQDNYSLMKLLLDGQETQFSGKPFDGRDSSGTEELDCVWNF

GST-NAP(1-166) = target: T6, GST-NAP(1-166) (UniProt O49255)
T6 sequence: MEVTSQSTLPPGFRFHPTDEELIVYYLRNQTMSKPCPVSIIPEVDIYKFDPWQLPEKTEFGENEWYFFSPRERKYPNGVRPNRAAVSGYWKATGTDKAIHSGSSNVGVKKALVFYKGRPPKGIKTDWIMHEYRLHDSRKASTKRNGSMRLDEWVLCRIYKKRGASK

GST-NST2(1-184) = target: T7, GST-NST2(1-184) (UniProt Q9M274)
T7 sequence: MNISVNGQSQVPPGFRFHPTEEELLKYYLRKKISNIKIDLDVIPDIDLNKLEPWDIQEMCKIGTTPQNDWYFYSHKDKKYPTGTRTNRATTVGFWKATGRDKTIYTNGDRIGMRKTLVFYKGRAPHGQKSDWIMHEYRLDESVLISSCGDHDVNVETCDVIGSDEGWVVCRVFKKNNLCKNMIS

GST-NTL8 NAC domain = target: T8, GST-NTL8 NAC domain (UniProt Q9XIN7)
T8 sequence: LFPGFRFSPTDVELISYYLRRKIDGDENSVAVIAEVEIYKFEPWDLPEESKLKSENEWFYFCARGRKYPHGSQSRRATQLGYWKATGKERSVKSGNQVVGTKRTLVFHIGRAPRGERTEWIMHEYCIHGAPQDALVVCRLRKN

GST-SND1(1-203) = target: T9, GST-SND1(1-203) (UniProt Q9LPI7)
T9 sequence: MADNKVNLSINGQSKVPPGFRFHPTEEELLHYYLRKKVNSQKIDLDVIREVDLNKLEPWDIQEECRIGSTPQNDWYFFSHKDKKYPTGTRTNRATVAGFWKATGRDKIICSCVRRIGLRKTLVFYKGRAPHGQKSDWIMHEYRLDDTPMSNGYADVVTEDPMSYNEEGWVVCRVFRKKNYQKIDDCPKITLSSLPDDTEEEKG

GST-VND3 NAC domain = target: T10, GST-VND3 NAC domain (UniProt Q9FH59)
T10 sequence: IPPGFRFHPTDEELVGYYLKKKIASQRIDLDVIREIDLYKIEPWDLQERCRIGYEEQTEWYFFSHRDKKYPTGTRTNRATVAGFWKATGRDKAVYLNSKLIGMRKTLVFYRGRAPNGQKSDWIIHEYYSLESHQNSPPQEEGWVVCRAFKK

GST-VND7 NAC domain = target: T11, GST-VND7 NAC domain (UniProt Q9C8W9)
T11 sequence: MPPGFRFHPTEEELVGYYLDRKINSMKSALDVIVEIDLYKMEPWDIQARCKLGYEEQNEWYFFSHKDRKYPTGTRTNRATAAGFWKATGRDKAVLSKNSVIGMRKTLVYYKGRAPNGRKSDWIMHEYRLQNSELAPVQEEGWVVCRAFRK

[2] = target: T12, GST-VOZ2 (Arabidopsis thaliana) (UniProt Q9SLB9)
T12 sequence: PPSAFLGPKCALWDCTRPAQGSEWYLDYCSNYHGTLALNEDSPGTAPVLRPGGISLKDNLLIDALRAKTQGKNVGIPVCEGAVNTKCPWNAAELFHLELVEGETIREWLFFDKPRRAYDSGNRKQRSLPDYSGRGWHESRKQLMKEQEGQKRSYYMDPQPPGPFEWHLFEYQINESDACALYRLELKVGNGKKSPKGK

UniProt Q9SCK6, sequence (Q9SCK6 1-168): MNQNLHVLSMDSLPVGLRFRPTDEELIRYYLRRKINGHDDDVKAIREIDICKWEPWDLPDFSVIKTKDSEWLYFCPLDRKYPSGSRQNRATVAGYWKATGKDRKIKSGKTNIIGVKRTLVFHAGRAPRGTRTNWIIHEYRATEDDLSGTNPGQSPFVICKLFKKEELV

| Sequence | binding signal (GST-ANAC092(1-176)) [E-score] | binding signal (GST-NTL6(1-168)) [E-score] | binding signal (GST-ANAC019 NAC domain) [E-score] | binding signal (GST-ANAC055(1-171)) [E-score] | binding signal (GST-ATAF1 NAC domain) [E-score] | binding signal [1] [E-score] | binding signal (GST-NAP(1-166)) [E-score] | binding signal (GST-NST2(1-184)) [E-score] | binding signal (GST-NTL8 NAC domain) [E-score] | binding signal (GST-SND1(1-203)) [E-score] | binding signal (GST-VND3 NAC domain) [E-score] | binding signal (GST-VND7 NAC domain) [E-score] | binding signal [2] [E-score] |
| --- | --- | --- | --- | --- | --- | --- | --- | --- | --- | --- | --- | --- | --- |
| CTGACCTA | -0.072 | -0.0307 | -0.0118 | -0.139 | -0.0205 | -0.0857 | -0.0512 | -0.0846 | 0.0298 | -0.125 | -0.0943 | -0.0685 | -0.0508 |
| CGATTGAC | -0.0222 | -0.00936 | -0.0554 | -0.0646 | -0.0509 | -0.0136 | -0.00541 | -0.0299 | -0.0778 | -0.0246 | -0.118 | -0.0755 | -0.0683 |
| AGTCAGCA | -0.0111 | -0.046 | -0.0913 | 0.0422 | -0.0135 | -0.0245 | -0.105 | -0.0334 | 0.0149 | -0.0724 | -0.0898 | -0.095 | -0.116 |
| AGTCAAGC | -0.00618 | -0.0918 | 0.0495 | 0.0126 | 0.0279 | 0.0135 | -0.133 | -0.0708 | 0.0828 | -0.0687 | 0.00671 | -0.0699 | -0.211 |
| GTCGGTCA | -0.211 | -0.224 | -0.0708 | -0.244 | -0.198 | -0.182 | -0.0786 | -0.202 | -0.0472 | -0.203 | -0.104 | -0.0815 | -0.109 |
| TGACCGCA | -0.13 | -0.21 | -0.133 | -0.225 | -0.153 | -0.0592 | -0.141 | -0.0348 | -0.099 | -0.0873 | -0.236 | -0.199 | 0.0984 |
| TGACCCAA | -0.0241 | -0.0646 | -0.0468 | 0.00716 | -0.0114 | -0.0457 | -0.106 | 0.0267 | 0.0199 | -0.0655 | -0.0217 | -0.139 | 0.0329 |
| AAGTCCAC | -0.0394 | -0.0748 | -0.0278 | -0.0456 | -0.0728 | -0.12 | -0.0155 | 0.0239 | 0.00945 | -0.0368 | -0.148 | -0.0776 | -0.112 |
| CCGCTGAC | -0.0506 | -0.0896 | 0.0159 | -0.11 | -0.0221 | -0.0768 | -0.0205 | -0.143 | 0.0147 | -0.0352 | -0.105 | -0.0724 | -0.0116 |
| GACGGTCA | -0.126 | -0.106 | -0.0527 | -0.155 | -0.15 | -0.0381 | -0.0433 | -0.135 | -0.0485 | -0.115 | -0.144 | -0.0787 | -0.153 |
| CACGGTCA | -0.0686 | -0.158 | 0.052 | -0.0664 | -0.0753 | -0.038 | -0.0198 | -0.155 |  | 0.00966 | -0.059 | 0.00138 | -0.141 |
| GTCAGCAA | -0.0305 | -0.0148 | -0.00771 | -0.065 | -0.0953 | -0.066 | -0.0489 | 0.00323 | -0.0618 | 0.0171 | -0.0408 | -0.092 | -0.0687 |
| GGTCTTCA | -0.0457 | -0.0146 | -0.0631 | -0.0371 | -0.115 | -0.117 | 0.0664 | 0.0297 | -0.0874 | -0.0959 | -0.118 | -0.0256 | -0.168 |
| ATTGACTC | -0.107 | 0.0232 | -0.0576 | -0.0405 | -0.177 | -0.0827 | -0.0325 | 0.0173 | -0.0178 | -0.05 | 0.0459 | -0.0595 | -0.103 |
| GGGGGTCA | -0.282 | -0.133 | -0.189 | -0.184 | -0.261 | -0.2 | 0.0274 | -0.246 | -0.065 | -0.156 | -0.344 | -0.24 | 0.108 |
| CTCGGTCA | -0.021 | -0.109 | 0.0124 | -0.0275 | -0.133 | -0.0298 | -0.0291 | -0.0683 |  | -0.0723 | -0.00771 | -0.0712 | -0.00058 |
| CATGGTCA | -0.22 | -0.0349 | -0.112 | -0.113 | -0.131 | -0.152 | -0.0346 | -0.155 | -0.0503 | -0.178 | 0.0588 | -0.0871 | -0.0393 |
| GTGGACCA | -0.0336 | -0.183 | -0.0105 | -0.0634 | -0.0602 | 0.0312 | -0.0422 | -0.0254 | -0.0583 | -0.0198 | -0.0575 | -0.105 | -0.134 |
| GGTCAGAA | -0.0236 | -0.11 | 0.0376 | -0.171 | -0.0116 | -0.0844 | -0.204 | -0.126 | 0.0234 | -0.0821 | -0.0274 | -0.0142 | 0.000875 |
| AAGACCGG | -0.0491 | -0.0999 | -0.0805 | -0.123 | -0.179 | -0.214 | 0.0296 | -0.132 | -0.0331 | -0.15 | -0.1 | -0.0926 | -0.0926 |
| GGAGTCAA | 0.00541 | 0.00373 | -0.00155 | 0.0115 | -0.0113 | -0.108 | -0.103 | -0.0995 | -0.0366 | -0.00492 | -0.0255 | -0.075 | -0.0808 |
| ACGGTCAG | -0.124 | -0.0829 | -0.0652 | -0.116 | -0.0805 | -0.129 | 0.0451 | -0.118 |  | 0.0355 | -0.0879 | 0.000735 | -0.0463 |
| GAGTCAGC | -0.0908 | -0.0361 | -0.156 | -0.0596 | -0.0815 | -0.0741 | -0.0573 | -0.0516 | 0.00799 | -0.0307 | -0.0667 | -0.0317 | -0.101 |
| TCCGGTCA | -0.126 | -0.24 | -0.0138 | -0.0981 | -0.0161 | -0.0282 | -0.0415 | -0.0983 | -0.0714 | -0.103 | -0.245 | -0.0405 | -0.0204 |
| CCTCTGAC | -0.0816 | -0.122 | -0.0563 | -0.269 | -0.21 | -0.0507 | -0.103 | -0.132 |  | -0.0348 | -0.172 | -0.123 | -0.162 |
